The chains are these.
B1: LINE1-mini (parent)
chain: GGCAGAGCUCAACACAGCGUGGCAAAGUGGCUGUGGCUAGACUGCC

The source gives no read counts; variants with many changes may rest on few reads.

The variants in this data set derive from B1. Kind of data set: self-cleavage, relative activity (ratio to wild type); higher = more cleavage; in vitro, sequencing; the parent is a self-cleaving ribozyme.
In the case of A4C G19U G29A U38G, the self-cleavage was 0.05.
Consider A4C C18G A25U U43A C46A, for which the self-cleavage came out at 0.01.
As to A4C G5C G21A, the self-cleavage worked out at 0.27.
In the case of C3U G21C C31U C42U, the self-cleavage was 0.07.
Take C3U G22A A25C U28G: the self-cleavage stood at 0.34.
Take C3U C13G C23A G29U C37U: the self-cleavage is 0.36.
Turning to A4C A16G G22U, the self-cleavage came out at 0.02.
For A4C A16U C23U U28A C37A, the self-cleavage came to 0.02.
On to C3U G17U G30C C31A, for which the self-cleavage was found to be 0.6.
On to C3U G30U C42U, for which the self-cleavage was found to be 0.09.
Under C3U C18G G19A U20C A26C stands 0.03; under A4C C13A G17C U43A, 0.01.
As to A4C G17U A24C C31A G44U, the self-cleavage came to 0.03.
As for C3U G5U C10A A26C G29A, the self-cleavage turned out to be 0.04.
Under C3U G5U G21U C37U stands 0.08.
Turning to A4C A25C C37A G44A, the self-cleavage was 0.17.
As to C3U G22A A41C, the self-cleavage worked out at 0.03.
Consider A4C C13G U43G G44U, for which the self-cleavage was found to be 0.16.
Regarding A4C G5C C8G G21U, the self-cleavage is 0.22.
Under A4C G7U C15G C31A C45A stands 0.04.
As for C3U G7C A39U, the self-cleavage worked out at 0.08.
On to A4C U20C G30A G35U, for which the self-cleavage was found to be 0.03.
A4C C10A A16U G19U G30C U32A G33U G35A G44A: the self-cleavage stood at 0.04.
With A4C C8G C13U, the self-cleavage was 0.03.
Turning to A4C G19C C23A U28G G44U, the self-cleavage stood at 0.03.
For C3U U20C C23G C31A, the self-cleavage came out at 0.04.
On to A4C U20A U28A G29U G36C G40C, for which the self-cleavage is 0.16.
Under C3U U9C C10A A11U C15A U34A C42U stands 0.01.
With A4C C8G C15U, the self-cleavage was 0.01.
With A4C C8A C10G, the self-cleavage amounted to 0.03.
Regarding C3U G5C C10A C15A G30U G36C U43A, the self-cleavage worked out at 0.01.
A4C C31U U32A A41C: the self-cleavage worked out at 0.01.
With A4C G19C G33C, the self-cleavage is 0.02.
Under A4C A12C C15G C31U C37G stands 0.
Turning to C3U C15G C31U G40U, the self-cleavage was found to be 0.01.
A4C C18G U28C C46U: the self-cleavage amounted to 0.14.
Under A4C G5A A12G stands 0.02; under A4C A6C G7C A14G A16C C42G, 0.22.
As to A4C G7U A11G C37A, the self-cleavage is 0.11.
For C3U C15A U20G G29U U43C, the self-cleavage is 0.
For C3U C23U A24G U28C C45A, the self-cleavage was found to be 0.14.
Consider C3U C13U G30U, for which the self-cleavage amounted to 0.1.
In the case of A4C A24C G40A C42U, the self-cleavage stood at 0.03.
Under A4C C8A A12C C15U A39C stands 0.06; under A4C A12C C23A, 0.15.
Consider C3U G19U U20A C31U U32A, for which the self-cleavage stood at 0.05.
As to C3U G7A A11G G36U C37A, the self-cleavage was 0.03.
Take A4C G5A A6U U9C G22A: the self-cleavage was determined as 0.06.
Under A4C G5A G36U stands 0.05; under C3U C18U G21A U28A G35A U38A A39G, 0.09.
With A4C G36A C45U, the self-cleavage came to 0.27.
Under A4C C13G G22U C31G stands 0.02; under A4C G22U C23A G36A, 0.18; under A4C C8A C13A U28G C31U G44A C45A, 0.08.
As to C3U G22A A26U G30U C37U U43C, the self-cleavage turned out to be 0.03.
For the variant A4C G19U U43A, the self-cleavage was 0.
Turning to A4C U20A A41U, the self-cleavage worked out at 0.03.
A4C G7A C8G G27U: the self-cleavage worked out at 0.09.
Under C3U G22U A41C stands 0.03; under C3U U9G U28G G33U, 0.07; under C3U G40A A41C C42U, 0.06.
Take A4C C37G A41U: the self-cleavage came to 0.05.
On to A4C G17C A25C U34A C42U, for which the self-cleavage stood at 0.01.
As for A4C G22C A26U G40A G44U, the self-cleavage is 0.11.
On to A4C C13A G21U C42U, for which the self-cleavage was 0.58.
C3U C23U A25U G35C G40A: the self-cleavage came to 0.06.
For the variant A4C A14U U28G A39U, the self-cleavage stood at 0.03.
Consider C3U G21U C31U A41C, for which the self-cleavage stood at 0.02.
As to C3U G7C C23A C45A, the self-cleavage was found to be 0.23.
As for A4C U9G C31G G36U G40U, the figure is 0.15; as for C3U U34C A41U, 0.05; as for C3U U20C C23U G30A A39G, 0.02.
Turning to A4C U38G C46U, the self-cleavage worked out at 0.07.
As for C3U C18G G19U G30C G40U, the self-cleavage stood at 0.03.
Turning to A4C A26U G40U, the self-cleavage is 0.01.
Regarding A4C A26U G40C, the self-cleavage was 0.23.
On to A4C A12U C15U U28A G44A, for which the self-cleavage amounted to 0.09.
On to C3U U32C C46A, for which the self-cleavage was found to be 0.09.
Take A4C C18U G21A G35U: the self-cleavage was determined as 0.08.
On to C3U U9C G40U, for which the self-cleavage amounted to 0.02.
In the case of A4C C15A C23G, the self-cleavage was 0.27.
As for A4C G5U U32G G44A, the figure is 0.01; as for A4C A6C G33C, 0.12.
Take C3U G27A U34C: the self-cleavage is 0.11.
For C3U U28G A39G U43G, the self-cleavage came to 0.01.
In the case of C3U U9G U34A G44A, the self-cleavage was determined as 0.09.
In the case of A4C G21U G29C, the self-cleavage was found to be 0.
As for A4C C8G U9A C45G, the self-cleavage amounted to 0.12.
Consider A4C C23A G29U U38G, for which the self-cleavage turned out to be 0.02.
For C3U G21U C45U, the self-cleavage worked out at 0.33.
For A4C G22A A25G A26G G30A C45U, the self-cleavage turned out to be 0.16.
On to C3U G27A U28C U34G, for which the self-cleavage turned out to be 0.07.
As to A4C G19U C23U A25C U28C, the self-cleavage was 0.03.
Turning to A4C G21C G35U, the self-cleavage was determined as 0.23.
For C3U C31A G33U, the self-cleavage amounted to 0.06.
Under A4C C10G U34C A39U stands 0.01; under A4C G22U U32G C37A, 0.07; under A4C C8G A26U C37U, 0.01.
As to C3U G5A C31A A41G, the self-cleavage came out at 0.03.
As for A4C U20C C23U C31A C46U, the self-cleavage is 0.06.
On to C3U G29A G33A C42A C45A, for which the self-cleavage was 0.01.
Regarding C3U G29C C31A C46U, the self-cleavage turned out to be 0.05.
Consider A4C A6U G27C C37G, for which the self-cleavage is 0.03.
As to C3U C15A G17A C37G, the self-cleavage was found to be 0.03.
Consider A4C U9C G44C, for which the self-cleavage came out at 0.02.
As for C3U C15G G17A G36U A41U, the figure is 0.02.
A4C C18G C23U U28C C31G G44A: the self-cleavage was 0.71.
Take C3U U28G U32A G35C: the self-cleavage is 0.12.
With C3U C15U G19C, the self-cleavage was 0.46.
For the variant A4C C13A C18A C23A C37A, the self-cleavage came to 0.06.
In the case of C3U G19A C23A A39G U43A, the self-cleavage amounted to 0.1.
Take A4C A6G A14U: the self-cleavage is 0.03.
Take A4C C23U G33U: the self-cleavage came out at 0.05.
With C3U C18A G21U A24U U28C U43G, the self-cleavage worked out at 0.01.
For A4C C10A G30U, the self-cleavage is 0.03.
Regarding C3U G7C G17C A25G U34A, the self-cleavage is 0.02.
For C3U U38A C45A, the self-cleavage was found to be 0.14.
Consider A4C A11U C31A, for which the self-cleavage is 0.02.
A4C C8U A26U G40A: the self-cleavage came out at 0.14.
For A4C U9A A16G A25C G29A, the self-cleavage amounted to 0.36.
On to A4C A12G U32C G35U G44C C46A, for which the self-cleavage is 0.08.
C3U G21U A26U U32G: the self-cleavage amounted to 0.1.
Turning to A4C G30C G35A C37G G40U C42A, the self-cleavage stood at 0.15.
In the case of C3U G17U U28G G33U C46A, the self-cleavage came to 0.03.
For the variant A4C C10A A24C G33U, the self-cleavage stood at 0.03.
As for A4C U34C C37U, the figure is 0.01; as for A4C G30U U38G, 0.09; as for C3U C23A G29C G44C, 0.1.
Turning to C3U C15U G35U U38G A41C, the self-cleavage stood at 0.03.
As for A4C A25C G36C, the self-cleavage worked out at 0.09.
In the case of A4C U9A A24U G40C A41U, the self-cleavage worked out at 0.57.
As for C3U G21A G40U, the figure is 0.11.
Regarding C3U G30C G36C C37U G40C C42G, the self-cleavage is 0.02.
For the variant A4C C15G C23A U38A, the self-cleavage was 0.02.
Under A4C C10A G27A G35U stands 0.05; under A4C A26U G27C, 0.01.
For the variant C3U U20A C31G, the self-cleavage worked out at 0.03.
Regarding A4C G5U A12C A14G G21C C42A, the self-cleavage came out at 0.04.
Under C3U G5U G27U C42U stands 0.23; under A4C G17A G40U, 0.09; under A4C C8A C31U, 0.12.
As to A4C G36C A41C, the self-cleavage is 0.04.
With A4C C37U G40A, the self-cleavage is 0.
As for A4C G7U G40A, the figure is 0.22.
Regarding C3U C18U G33U U38A, the self-cleavage is 0.05.
As for A4C A11U G22U C42U U43C, the figure is 0; as for A4C A26U G27C C31A G40A, 0.16; as for C3U U20A C46G, 0.17.
As to A4C G7C C10A C18G C31A, the self-cleavage was 0.05.
For the variant C3U C23U G35C, the self-cleavage is 0.19.
Under C3U G21U G22C stands 0.31; under A4C C15U A24U U43A, 0.56.
As to C3U G5A G17U G21A G30C, the self-cleavage stood at 0.04.
In the case of A4C G35U U43G, the self-cleavage worked out at 0.03.
With A4C A14U U34A C46U, the self-cleavage is 0.05.
As for A4C U9G A39C, the figure is 0.03; as for A4C C10A A24G G36C, 0.03; as for A4C A24C G29C C42G, 0.02.
Turning to C3U G21A G22A, the self-cleavage amounted to 0.2.
With A4C G29A G36U U43G, the self-cleavage was determined as 0.
Regarding A4C A6G A26U C31A U43G C46G, the self-cleavage was 0.01.
C3U U9A U34C G40C: the self-cleavage came to 0.03.
Take C3U C13G C15G G44C: the self-cleavage was found to be 0.08.
On to C3U G22U U32G U38A C46A, for which the self-cleavage stood at 0.04.
Take A4C A6U A12G G29U: the self-cleavage was 0.02.
Take A4C G36A A39C C42A G44C: the self-cleavage stood at 0.04.
Turning to A4C U9A A14G C37A G44U C45A, the self-cleavage is 0.02.

Source of the values: the RNAGym collection of RNA variant scans (doi:10.7554/elife.90254).
